# The other results are listed elsewhere or left out.
# B1: Epa15 (Candida glabrata) (protein)
# chain: MGSSHHHHHHSSGLVPRGSHMASDPTTFPLGCSPEFTKTKKGLSMELYRYDYLPPGSYPCWDSAYLNPSYPRTGYKAKKLIATVDGVSGDINFKFNPKFGCKAIPDYLPSNFNYHEPITITNFTMILYGYFMPKTTAFHTFYVTADDLLFMNFGAGNAFDCCRREETADKFGNYAAYSVWGKKSLKNELTVYLHTGVYYPIRLFYNNRDYIAQLDIRFKTEHSNAIITNFTDYFYSVDDSSLGCPGLI
# What was measured:
# Assay in all cases: glycan array binding signal (z-score within array); higher = stronger binding
# Settings in all cases: glycan notation: IUPAC condensed, linker removed
# [1] = molecular target: Neu5Ac(a2-3)Gal(b1-3)GlcNAc(b1-6)GalNAc
# Method in brief: (§1)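 The binding signal is a Z-score computed within each array and averaged over linkers. Arrays of the same protein sequence at different concentrations or buffers were also averaged together. Data originate from 3228 arrays in the Consortium for Functional Glycomics database, kept only where the protein sequence was available.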
# [2] = molecular target: Neu5Ac(a2-3)Gal(b1-3)GlcNAc6S
# Method in brief: as §1
# [3] = molecular target: Neu5Ac(a2-3)Gal(b1-3)[Fuc(a1-4)]GlcNAc
# Method in brief: as §1
# [4] = molecular target: Neu5Ac(a2-3)Gal(b1-3)[Fuc(a1-4)]GlcNAc(b1-3)Gal(b1-3)[Fuc(a1-4)]GlcNAc
# Method in brief: as §1
# [5] = molecular target: Neu5Ac(a2-3)Gal(b1-3)[Fuc(a1-4)]GlcNAc(b1-3)Gal(b1-4)[Fuc(a1-3)]GlcNAc
# Method in brief: as §1
# [6] = molecular target: Neu5Ac(a2-3)Gal(b1-3)[GlcNAc(b1-6)]GalNAc
# Method in brief: as §1
# [7] = molecular target: Neu5Ac(a2-3)Gal(b1-3)[Neu5Ac(a2-3)Gal(b1-4)]GlcNAc
# Method in brief: as §1
# [8] = molecular target: Neu5Ac(a2-3)Gal(b1-3)[Neu5Ac(a2-6)]GalNAc
# Method in brief: as §1
# [9] = molecular target: Neu5Ac(a2-3)Gal(b1-3)[Neu5Ac(a2-6)]GlcNAc(b1-3)[Fuc(a1-3)[Gal(b1-4)]GlcNAc(b1-6)]Gal(b1-4)Glc
# Method in brief: as §1
# [10] = molecular target: Neu5Ac(a2-3)Gal(b1-3)]Neu5Ac(a2-3)Gal(b1-4)]GlcNAc
# Method in brief: as §1
# [11] = molecular target: Neu5Ac(a2-3)Gal(b1-4)Glc
# Method in brief: as §1
# [12] = molecular target: Neu5Ac(a2-3)Gal(b1-4)GlcNAc
# Method in brief: as §1
# [13] = molecular target: Neu5Ac(a2-3)Gal(b1-4)GlcNAc(b1-2)Man
# Method in brief: as §1
# [14] = molecular target: Neu5Ac(a2-3)Gal(b1-4)GlcNAc(b1-2)Man(a1-3)[GlcNAc(b1-4)][Neu5Ac(a2-3)Gal(b1-4)GlcNAc(b1-2)Man(a1-6)]Man(b1-4)GlcNAc(b1-4)GlcNAc
# Method in brief: as §1
# [15] = molecular target: Neu5Ac(a2-3)Gal(b1-4)GlcNAc(b1-2)Man(a1-3)[Neu5Ac(a2-3)Gal(b1-4)GlcNAc(b1-2)Man(a1-6)]Man(b1-4)GlcNAc(b1-4)GlcNAc
# Method in brief: as §1
# [16] = molecular target: Neu5Ac(a2-3)Gal(b1-4)GlcNAc(b1-2)Man(a1-3)[Neu5Ac(a2-3)Gal(b1-4)GlcNAc(b1-2)Man(a1-6)]Man(b1-4)GlcNAc(b1-4)[Fuc(a1-6)]GlcNAc
# Method in brief: as §1
# [17] = molecular target: Neu5Ac(a2-3)Gal(b1-4)GlcNAc(b1-2)Man(a1-3)[Neu5Ac(a2-6)Gal(b1-4)GlcNAc(b1-2)Man(a1-6)]Man(b1-4)GlcNAc(b1-4)GlcNAc
# Method in brief: as §1
# [18] = molecular target: Neu5Ac(a2-3)Gal(b1-4)GlcNAc(b1-2)[Neu5Ac(a2-3)Gal(b1-4)GlcNAc(b1-4)]Man(a1-3)[GlcNAc(b1-4)][Neu5Ac(a2-3)Gal(b1-4)GlcNAc(b1-2)[Neu5Ac(a2-3)Gal(b1-4)GlcNAc(b1-6)]Man(a1-6)]Man(b1-4)GlcNAc(b1-4)GlcNAc
# Method in brief: as §1
# [19] = molecular target: Neu5Ac(a2-3)Gal(b1-4)GlcNAc(b1-2)[Neu5Ac(a2-3)Gal(b1-4)GlcNAc(b1-4)]Man(a1-3)[GlcNAc(b1-4)][Neu5Ac(a2-3)Gal(b1-4)GlcNAc(b1-4)Man(a1-6)]Man(b1-4)GlcNAc(b1-4)GlcNAc
# Method in brief: as §1
# [20] = molecular target: Neu5Ac(a2-3)Gal(b1-4)GlcNAc(b1-2)[Neu5Ac(a2-3)Gal(b1-4)GlcNAc(b1-6)]Man(a1-6)[Neu5Ac(a2-3)Gal(b1-4)GlcNAc(b1-2)Man(a1-3)][GlcNAc(b1-4)]Man(b1-4)GlcNAc(b1-4)GlcNAc
# Method in brief: as §1
# [21] = molecular target: Neu5Ac(a2-3)Gal(b1-4)GlcNAc(b1-3)Gal
# Method in brief: as §1
# [22] = molecular target: Neu5Ac(a2-3)Gal(b1-4)GlcNAc(b1-3)Gal(b1-3)GlcNAc
# Method in brief: as §1
# [23] = molecular target: Neu5Ac(a2-3)Gal(b1-4)GlcNAc(b1-3)Gal(b1-4)GlcNAc
# Method in brief: as §1
# [24] = molecular target: Neu5Ac(a2-3)Gal(b1-4)GlcNAc(b1-3)Gal(b1-4)GlcNAc(b1-2)Man(a1-3)[Neu5Ac(a2-3)Gal(b1-4)GlcNAc(b1-3)Gal(b1-4)GlcNAc(b1-2)Man(a1-6)]Man(b1-4)GlcNAc(b1-4)GlcNAc
# Method in brief: as §1
# [25] = molecular target: Neu5Ac(a2-3)Gal(b1-4)GlcNAc(b1-3)Gal(b1-4)GlcNAc(b1-3)Gal(b1-4)GlcNAc
# Method in brief: as §1
# [26] = molecular target: Neu5Ac(a2-3)Gal(b1-4)GlcNAc(b1-3)Gal(b1-4)GlcNAc(b1-3)Gal(b1-4)GlcNAc(b1-2)Man(a1-3)[Neu5Ac(a2-3)Gal(b1-4)GlcNAc(b1-3)Gal(b1-4)GlcNAc(b1-3)Gal(b1-4)GlcNAc(b1-2)Man(a1-6)]GalNAc
# Method in brief: as §1
# [27] = molecular target: Neu5Ac(a2-3)Gal(b1-4)GlcNAc(b1-3)Gal(b1-4)GlcNAc(b1-3)GalNAc
# Method in brief: as §1
# [28] = molecular target: Neu5Ac(a2-3)Gal(b1-4)GlcNAc(b1-3)Gal(b1-4)GlcNAc(b1-3)[Neu5Ac(a2-3)Gal(b1-4)GlcNAc(b1-3)Gal(b1-4)GlcNAc(b1-6)]GalNAc
# Method in brief: as §1
# [29] = molecular target: Neu5Ac(a2-3)Gal(b1-4)GlcNAc(b1-3)Gal(b1-4)GlcNAc(b1-6)[Gal(b1-3)]GalNAc
# Method in brief: as §1
# [30] = molecular target: Neu5Ac(a2-3)Gal(b1-4)GlcNAc(b1-3)Gal(b1-4)[Fuc(a1-3)]GlcNAc
# Method in brief: as §1
# [31] = molecular target: Neu5Ac(a2-3)Gal(b1-4)GlcNAc(b1-3)GalNAc
# Method in brief: as §1
binder,measurement,setting,value
B1,glycan array binding signal (z-score),[1],0.222
same,glycan array binding signal (z-score),[2],0.091
same,glycan array binding signal (z-score),[3],-0.399
same,glycan array binding signal (z-score),[4],-0.455
same,glycan array binding signal (z-score),[5],0.203
same,glycan array binding signal (z-score),[6],-0.596
same,glycan array binding signal (z-score),[7],-0.266
same,glycan array binding signal (z-score),[8],-0.355
same,glycan array binding signal (z-score),[9],-0.389
same,glycan array binding signal (z-score),[10],-0.194
same,glycan array binding signal (z-score),[11],-0.292
same,glycan array binding signal (z-score),[12],-0.463
same,glycan array binding signal (z-score),[13],0.727
same,glycan array binding signal (z-score),[14],-0.392
same,glycan array binding signal (z-score),[15],-0.217
same,glycan array binding signal (z-score),[16],-0.384
same,glycan array binding signal (z-score),[17],0.879
same,glycan array binding signal (z-score),[18],-0.494
same,glycan array binding signal (z-score),[19],-0.546
same,glycan array binding signal (z-score),[20],-0.384
same,glycan array binding signal (z-score),[21],-0.552
same,glycan array binding signal (z-score),[22],-0.434
same,glycan array binding signal (z-score),[23],-0.109
same,glycan array binding signal (z-score),[24],0.079
same,glycan array binding signal (z-score),[25],-0.448
same,glycan array binding signal (z-score),[26],2.56
same,glycan array binding signal (z-score),[27],-0.234
same,glycan array binding signal (z-score),[28],1.06
same,glycan array binding signal (z-score),[29],0.393
same,glycan array binding signal (z-score),[30],-0.542
same,glycan array binding signal (z-score),[31],-0.479

# Source: the supplement of paper PMC8728848
